In PubChem BioAssay AID360 (National Center for Advancing Translational Sciences (NCATS), 2006):
Screen size: about 48,000 compounds; about 550 (1.1%) were called active. Not shown: some 4% with an inconclusive outcome. Cut-off read from the data, not from the text of the source: active = potency below about 15 µM; inconclusive = mostly about 16 µM to 33 µM; inactive = weaker than that. This is one part of the list.

Biological target: Lysosomal acid glucosylceramidase (Homo sapiens) (UniProt P04062)
UniProt P04062, sequence (P04062 whole entry, looked up): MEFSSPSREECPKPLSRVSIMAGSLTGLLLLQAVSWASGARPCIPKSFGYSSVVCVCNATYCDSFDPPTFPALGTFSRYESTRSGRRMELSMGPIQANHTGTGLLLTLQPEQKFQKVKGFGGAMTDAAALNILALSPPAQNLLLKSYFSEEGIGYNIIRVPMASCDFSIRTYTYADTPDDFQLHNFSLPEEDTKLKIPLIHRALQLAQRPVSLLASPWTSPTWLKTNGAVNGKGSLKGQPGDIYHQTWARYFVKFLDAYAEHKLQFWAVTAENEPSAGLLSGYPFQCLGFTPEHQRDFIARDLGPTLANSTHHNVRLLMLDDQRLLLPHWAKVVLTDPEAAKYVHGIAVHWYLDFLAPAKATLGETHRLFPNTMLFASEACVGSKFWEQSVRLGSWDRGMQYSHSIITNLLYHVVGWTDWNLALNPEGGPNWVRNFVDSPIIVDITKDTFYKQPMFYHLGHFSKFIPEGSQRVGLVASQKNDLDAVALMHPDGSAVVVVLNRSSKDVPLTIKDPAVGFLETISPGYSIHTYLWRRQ
Assay: Glucocerebrosidase;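 note: the screen sought inhibitors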
Settings: purified enzyme, resorufin glucoside fluorescence (screen aimed at inhibitors), 20 min; series mostly up to 77 µM
Outline: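 Wild-type enzyme at 0.2 nM final in 50mM citric acid/KH2PO4, 10mM sodium taurocholate, 0.01% tween-20, pH 5.9, with resorufin beta-D-glucopyranoside at 30 uM final. Compounds titrated, 20 min at RT, red fluorescence read; AC50 from titration.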
Potency is the fitted concentration of half-maximal effect.

Potency, inactive:
O=S(=O)(NCC1CCCO1)c1ccc(Br)s1 (configuration not stated) > 76.9 µM, CC(NC(=O)Cn1nc(C(=O)O)c2ccccc2c1=O)c1ccccc1 (configuration not stated) > 76.9 µM, Cc1nnc2sc(-c3ccc(NC(=O)c4ccc(-c5ccc(Cl)cc5Cl)o4)cc3)nn12 > 76.9 µM, COc1ccc(S(=O)(=O)N(C)CC(=O)NCc2cccnc2)cc1C > 76.9 µM, CCCCn1c(=O)cc(O)c2ccccc21 > 76.9 µM, C=CCn1c(SCC(=O)O)nnc1-c1ccc(C(C)(C)C)cc1 > 76.9 µM, C#CC(C)(CC)NC(=O)c1cc(OC)c(OC)c(OC)c1 (configuration not stated) > 76.9 µM, CNC(=O)CN(c1ccc(OC)cc1)S(=O)(=O)c1ccc(F)cc1 > 76.9 µM, CCCn1c(=N)c(C(=O)NCc2ccc3c(c2)OCO3)cc2c(=O)n3cccc(C)c3nc21 > 76.9 µM, C1=CC2CC1CC2CNCc1ccco1 (configuration not stated) > 76.9 µM, CCOC(=O)CC(=O)CSc1nc(C)nc2c1oc1ccccc12 > 76.9 µM, Nc1nc(CN2CCN(c3ccccn3)CC2)nc(Nc2ccc(Cl)cc2)n1, Cc1cc(C)n2c(=S)[nH]nc2n1 > 76.9 µM, C=CCn1c(=O)c2ccccc2n2c(SCC(=O)N3CCCc4ccccc43)nnc12 > 76.9 µM, COc1cc(C(=O)NCc2nnc(SCC(=O)Nc3cc(C)cc(C)c3)o2)cc(OC)c1OC > 76.9 µM, CCOC(=O)N1CCN(C(=O)c2cccc(NC3=NC4CS(=O)(=O)CC4S3)c2)CC1 (configuration not stated) > 76.9 µM, Cc1ccc(SC(C)c2nc(-c3cccnc3)no2)cc1 (configuration not stated) > 76.9 µM, Cn1c(=O)oc2cc(S(=O)(=O)NCCC(=O)N3CC=C(c4ccccc4)CC3)ccc21 > 76.9 µM, Cc1csc(NC(=O)c2sc3nc(-c4cccs4)ccc3c2N)n1 > 76.9 µM, Cc1ccc(S(=O)(=O)N2C(=O)CCC2C(=O)NCc2ccco2)cc1 (configuration not stated) > 76.9 µM, CCn1cc(Br)c(C(=O)Nc2cccc(Cl)c2)n1 > 76.9 µM, O=C(NCc1ccc(F)cc1)c1noc2c1CCCC2 > 76.9 µM, O=C(O)CCN1C(=O)c2ccc(NC(=O)c3cccs3)cc2C1=O > 76.9 µM, Cc1cc(C)c2nc(N3CCCN(C(=O)c4cnccn4)CC3)c(C#N)cc2c1 > 76.9 µM, Cc1nn(C)cc1CNC(=O)c1cnn2c1NC(c1ccc(Br)cc1)CC2C(F)(F)F (configuration not stated) > 76.9 µM, Cn1c(=O)c2[nH]c(N3CCOCC3)nc2n(-c2ccccc2)c1=O > 76.9 µM, O=C(COC(=O)c1cccnc1Nc1ccccc1F)NCc1ccc2c(c1)OCO2 > 76.9 µM, O=C(Nc1ccc2c(c1)OCO2)OCc1ccccc1 > 76.9 µM, COc1cccc(C2C3CN(C)CC=C3C(C#N)=C(N)C2(C#N)C#N)c1OC (configuration not stated) > 76.9 µM, O=C(OCc1c(Cl)nc2sccn12)c1cc2c(s1)CCCC2 > 76.9 µM, CCCS(=O)(=O)C(=C1NCCO1)S(=O)(=O)CCC > 76.9 µM, O=C(NC1CCCCC1)C1CCCN(S(=O)(=O)c2cccs2)C1 (configuration not stated) > 76.9 µM, COc1ccc(N2C(=O)CN=C2Nc2cccc(C)c2C)cc1OC > 76.9 µM, Cc1cc(C)n(-c2nc3c(c(=O)[nH]c(=O)n3C)n2C)n1 > 76.9 µM, CCC(=O)N1CCc2cc(S(=O)(=O)N3CCc4ccccc43)ccc21 > 76.9 µM, COc1ccc(C(=O)Nc2cccc(-c3nc4ncccc4o3)c2C)cc1OC > 76.9 µM, Cc1c(NC(=O)C2Cc3ccccc3CN2C(=O)c2ccco2)c(=O)n(-c2ccccc2)n1C (configuration not stated) > 76.9 µM, C/C=C/c1ccc(OCCn2cncn2)c(OC)c1 > 76.9 µM, CC(C)CNC(=O)c1cccc(Cn2cc(Cl)cn2)c1 > 76.9 µM, CCOC(=O)c1c(N)nn(C(C)=O)c1-c1ccccc1 > 76.9 µM, Cc1nc2nc(-c3ccco3)nn2c(C)c1Cl > 76.9 µM, CCOC(=O)CNC(=O)CSc1ncnc2c1cnn2-c1ccc(C)cc1 > 76.9 µM, Cc1ccc(C)c(NC(=O)CC(NCCCN2CCOCC2)C(=O)O)c1 (configuration not stated) > 76.9 µM, Cc1cccc(OCC(=O)Nc2cccc(-c3nnc(-c4ccccc4)o3)c2)c1C > 76.9 µM, O=C(Nc1ccc(S(=O)(=O)NC2CCCC2)cc1)c1cnccn1 > 76.9 µM, CCCN1/C(=C(/C#N)C2=NS(=O)(=O)c3ccccc32)N(C)c2ccccc21 > 76.9 µM, O=c1[nH]c2ccc(S(=O)(=O)NCc3ccccn3)cc2s1 > 76.9 µM, CN(C)C(=O)N1CCC(C(=O)NCc2ccccc2)CC1 > 76.9 µM, Cc1ccc(C)c2[nH]c(=O)c(C(c3nnnn3Cc3ccco3)N3CCc4ccccc4C3)cc12 (configuration not stated) > 76.9 µM, COCCNC(=O)C(c1ccc(Cl)cc1)N(C(=O)CCC(=O)Nc1ccccn1)C1CCCC1 (configuration not stated) > 76.9 µM, Cc1ccc(C)c(SCC(=O)Nc2nnc(-c3ccccc3)o2)c1 > 76.9 µM, Cc1ccc(CN(CC(=O)NCCc2ccccc2)C(=O)CCCC(=O)Nc2cc(C)on2)cc1 > 76.9 µM, Cn1nnnc1SCC(=O)Nc1ccc(Oc2ccccc2)cc1 > 76.9 µM, O=C(NCCCN1CCc2ccccc2C1)C1CCN(S(=O)(=O)N2CCCC2)CC1 > 76.9 µM, C=CCn1c(=O)c(C(=O)Nc2nnc(C)s2)c(O)c2ccccc21 > 76.9 µM, COc1cc(C(=S)N2CCCCC2)ccc1OCC(=O)N1CCCC1 > 76.9 µM, Cc1n[nH]c(C)c1S(=O)(=O)N1CCN(C2CCCCC2)CC1 > 76.9 µM
